Among all 330,000 compounds or so, about 40 (0.01%) were called active. The shares of active, inactive and inconclusive entries below differ from those in the screen. Calls follow the shape of the dose curve; as a rule, active = well fitted inhibition curve with a large enough effect; inconclusive = small, poorly fitted or top-dose-only effect, or effect the other way; inactive = flat fitted curve, though single readings scatter. Where the call is inconclusive, the potency comes from a doubtful curve fit.
Each molecule was assayed against Ubiquitin carboxyl-terminal hydrolase 2 (Homo sapiens) (UniProt O75604) (assay: qHTS Assay for Inhibitors of Ubiquitin-specific Protease USP2a Using CHOP2 as the Reporter). Settings: USP2 core, Ub-CHOP2 coupled fluorogenic reporter, 485/531; series mostly up to 38.3 µM.
Sequence of UniProt O75604 (O75604 whole entry, looked up): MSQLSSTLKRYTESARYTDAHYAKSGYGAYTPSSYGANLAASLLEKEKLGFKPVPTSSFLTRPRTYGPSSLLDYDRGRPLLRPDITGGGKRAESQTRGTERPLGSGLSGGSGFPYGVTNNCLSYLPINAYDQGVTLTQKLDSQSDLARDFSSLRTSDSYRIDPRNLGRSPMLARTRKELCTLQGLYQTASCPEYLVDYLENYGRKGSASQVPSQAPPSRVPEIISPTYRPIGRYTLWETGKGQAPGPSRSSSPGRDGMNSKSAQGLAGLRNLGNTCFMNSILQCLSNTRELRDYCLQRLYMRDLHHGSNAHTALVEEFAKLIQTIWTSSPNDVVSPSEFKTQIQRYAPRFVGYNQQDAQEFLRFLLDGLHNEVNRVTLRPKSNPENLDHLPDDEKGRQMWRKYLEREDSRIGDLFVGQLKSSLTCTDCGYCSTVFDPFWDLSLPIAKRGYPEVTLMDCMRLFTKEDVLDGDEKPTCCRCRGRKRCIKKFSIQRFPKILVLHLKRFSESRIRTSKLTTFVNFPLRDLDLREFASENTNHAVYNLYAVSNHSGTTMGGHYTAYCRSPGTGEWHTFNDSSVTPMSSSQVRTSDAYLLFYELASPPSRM
Excerpt: NIH Molecular Libraries Screening Centers Network [MLSCN] NIH Chemical Genomics Center [NCGC] MLSCN Grant: XO1-MH079852-01 PI Name: Nicholson, Ben. Progenra Inc, Malvern, PA NCGC Assay Overview: Homeostasis of cellular proteins is maintained through a combination of synthesis and degradation. The pathway that accounts for the majority of protein degradation is the ubiquitin-proteasomal pathway. Ubiquitin (Ub) is highly conserved in all cells and the generation of a multi-Ub chain typically targets proteins for degradation by the proteasome. However, ubiquitination is highly reversible and dynamic. Deubiquitination, the reverse process, is catalyzed through the action of enzymes referred to as isopeptidases or deubiquitinating enzymes (DUBs). This group of enzymes is collectively responsible for maintaining adequate pools of free ubiquitin and regulating the ubiquitination status of cellular proteins. The class of DUBs referred to as the ubiquitin-specific proteases (USP) family functions endoproteolytically to cleave Ub chains from a wide range of protein substrates. USP2a deubiquitinates fatty acid synthase (FASN) which has recently been identified as an emerging oncology target. To identify inhibitors of USP2a a cell-free assay was employed. […] The reporter enzyme chosen is an enterokinase called CHOP2, which is activated when the Ub is cleaved by USP2. The free and now activated reporter can subsequently act on its reporter substrate. Thus, this coupled assay gives a fluorescent read-out at excitation/emission wavelengths of 485/531. The assay was developed by Progenra, Inc. and has been licensed for sale by LifeSensors, Inc. as Ub-CHOP2-Reporter-Kit (#PR1101).
NCGC Assay Protocol Summary: The assay buffer, prepared fresh at the day of the assay, contains 20mM Tris-HCl pH 8.0, 2mM CaCl2, 2mM beta-Mercaptoethanol, 0.05% CHAPS. 3ul of 20nM (10nM final) USP2 core, which is stored on ice, is dispensed into a medium-binding black solid Kalypsys 1,536 well plate using the Kalypsys dispenser. The assay plate is then pinned with 23nL compound with the Kalypsys pintool in columns 5-48. The controls are pinned as follows: column 1 two-fold dilutions of 2M NEM in duplicate; column 2 2M NEM (final concentration 38.2mM); column 3&4 DMSO. The assay plate is incubated at RT for 30min. Subsequently, 1.5uL of 100nM (25nM final) Ub-CHOP2 and 1.5uL of 100nM (25nM final) Reporter Substrate (both stored on ice and protected from light) were dispensed into the plate using the Kalypsys dispenser. Plates were read after 60min RT incubation on a ViewLux (Perkin Elmer) plate reader using the following wavelengths Ex 485nm /Em 531nm. Data were normalized to the to AC100 inhibition (NEM). Concentration-response curves were fitted to the normalized data and the concentration-response curves were then classified based on curve quality (r2), response magnitude and degree of measured activity. The time zero reading was used to flag fluorescence artifacts. Keywords: ubiquitination, deubiquitination, proteases, profluorescent, MLSMR, MLPCN, NIH Roadmap, qHTS, NCGC
Potency is read from the fitted curve at half-maximal effect; tags tell the direction and shape of the fitted curve or compound fluorescence and quenching.

Structure (SMILES)	Potency
Nc1c(C(O)(C(F)(F)F)C(F)(F)F)ccc2ccccc12	inactive
C/C(Cn1nnc2ccccc21)=N\OC(=O)c1ccccc1C	inconclusive: 5.01 µM [falling, single point]
Cc1ccccc1C(=O)N1CC(=O)Nc2ccc(F)cc2C1c1ccc(F)cc1 (configuration not stated)	inactive
COc1cc(C2CC(=O)c3c([nH]c(C(=O)OCCOC(C)C)c3C)C2)cc(OC)c1OC (configuration not stated)	inactive
COc1cc(/C=C/C(=O)OCC(=O)Nc2ccc(NC(C)=O)cc2)cc(S(=O)(=O)N2CCc3ccccc32)c1OC	inactive
CN1CCN(S(=O)(=O)c2cccc(C(=O)Nc3ccccc3N3CCCC3)c2)CC1	inactive
N#CC1(C#N)CC(C=O)=C(N)C1(C#N)CC(=O)c1ccc(F)cc1 (configuration not stated)	inconclusive: 11.2 µM [fluorescent, partial curve]
Cc1ccc(C(=O)NCCCNC(=O)COc2ccc(Cl)c(C)c2)cn1	inactive
Cc1cc(O)c2c(c1)C(=O)c1cccc(O)c1C2=O	inactive
CCOc1ccc2c(C)nc(NC3=NC(C)(C)C=C(C)N3)nc2c1	inactive
Cc1ccc(SCC(=O)NCC(C)C)cc1	inconclusive: 28.2 µM [falling, single point]
O=C(Nc1ccc(Nc2ccncc2)cc1)c1ccc(Nc2ccnc3ccc([N+](=O)[O-])cc23)cc1[N+](=O)[O-]	inconclusive: 10 µM [falling, partial curve]
CSc1ncccc1C(=O)OCC(=O)N1CCOCC1	inconclusive: 2.82 µM [falling, single point]
O=C(CN1C(=O)/C(=C/c2ccco2)SC1=S)Nc1ccc(O)c(C(=O)O)c1	inactive
N#Cc1c(SCC(=O)Nc2nc3ccccc3s2)sc2c(O)cc(=O)[nH]c12	inconclusive: 22.4 µM [falling, single point]
O=C1C=CC(=O)N1N(c1ccccc1)c1ccccc1	inactive
COC(=O)[C@@]12CCCCN1[C@H](c1ccc(-c3ccc(Cl)c(Cl)c3)cc1)[C@H]1C(=O)N(C)C(=O)[C@H]12	inconclusive: 28.2 µM [falling, single point]
CCOC(=O)/C(C#N)=C(C)/C=C1\Sc2ccccc2N1CC	inconclusive: 5.01 µM [falling, single point]
Cc1ccc(CNC(=O)CCNS(=O)(=O)c2ccc(C)cc2)cc1	inconclusive: 15.8 µM [falling, single point]
Cc1ccc(C)c(Cn2nnc(C(=O)Nc3ccc4c(c3)OCCO4)c2N)c1	inactive
c1ccc(Nc2c3c(nc4ncnn24)CCC3)cc1	inconclusive: 3.16 µM [falling, single point]
CC1Cc2ccccc2N1C(=O)Cn1c(=O)oc2cc(S(=O)(=O)NC3CCCC3)ccc21 (configuration not stated)	inconclusive: 5.01 µM [falling, single point]
CC(=O)Nc1sc2c(c1-c1nc3ccccc3s1)CCN(C(C)C)C2	inconclusive: 2.24 µM [fluorescent, full curve]
CCOc1cc(/C=C2\C(=O)N(c3nc(-c4ccc(Br)cc4)cs3)N=C2c2ccccc2)ccc1O	inconclusive: 12.6 µM [falling, single point]

Structure (SMILES)	Potency
COc1ccc(OC)c(C2=NS(=O)(=O)N(C)C(C(=O)N3CCC4(CC3)OCCO4)=C2)c1	inactive
COc1ccc(CN(Cc2cc3cc(C)ccc3[nH]c2=O)C(=O)N(C)C)cc1	inconclusive: 3.16 µM [falling, single point]
CN(C)Cc1c(O)ccc2c1O/C(=C\C=C\c1ccccc1)C2=O	inconclusive: 11.2 µM [fluorescent, partial curve]
CCOC(=O)Cc1csc(NC(=O)Cc2ccc(Cl)cc2)n1	inactive
O=C(CN1CCN(Cc2ccccc2)CC1)NCCc1ccccc1	inactive
Oc1c(Cl)cc(Cl)c(Cl)c1Cc1c(O)c(Cl)cc(Cl)c1Cl	inconclusive: 22.4 µM [falling, single point]
Cc1ccc(C=Nc2cccnc2N)cc1	inconclusive: 5.62 µM [fluorescent, partial curve]
O=C(CCl)N1N=C(c2ccco2)CC1c1ccco1 (configuration not stated)	inactive
CC(C)NC(=O)/C(C#N)=C/c1ccc(N(C)C)o1	inconclusive: 11.2 µM [fluorescent, single point]
Cc1[nH]c2ccccc2c1C(c1ccccn1)c1c(C)[nH]c2ccccc12	inconclusive: 28.2 µM [falling, single point]
C=CC[C@@H](CC(=O)N(CCO)Cc1ccccc1)C(=O)NCCOC(=O)[C@H](CC=C)CC(=O)OC(C)(C)C	inconclusive: 28.2 µM [falling, single point]
COc1cc(/C=C(\C#N)c2nc3ccccc3o2)ccc1O	inconclusive: 10 µM [fluorescent, single point]
COc1ccc2[nH]c(=O)c(CN(Cc3cccs3)Cc3nnnn3C(C)(C)C)cc2c1	inactive
CCO[C@@H]1OC(C(=O)NCc2nc3ccccc3[nH]2)=C[C@H](C2CC2)[C@H]1CCCO	inactive
Cc1ccc(S(=O)(=O)Nc2ccccc2-c2ccccc2NS(=O)(=O)c2ccc(C)cc2)cc1	inconclusive: 11.2 µM [falling, single point]
O=C(Nc1ccccc1C(=O)N/N=C/c1ccccc1)c1ccco1	inactive
COc1cccc(NC(=O)CN(C)C(C)C(=O)Nc2cc([N+](=O)[O-])ccc2Cl)c1 (configuration not stated)	inactive
COc1cccc(NC(=O)c2ccccc2-c2nc(-c3cccc(C)c3)no2)c1	inconclusive: 3.16 µM [falling, single point]
OCCNc1ncnc2c1c(-c1ccccc1)c(-c1ccccc1)n2Cc1ccco1	inactive
Cc1nn(C)c(C)c1N1C(=O)c2cccc3c(N)ccc(c23)C1=O	inconclusive: 11.2 µM [fluorescent, partial curve]
COCCN1C(=O)/C(=C/c2ccc(N3CCCC3)cc2)SC1=S	inconclusive: 20 µM [fluorescent, partial curve]
Cc1cc(NC(=O)COn2nnc3ccc(S(C)(=O)=O)cc32)ccc1Br	inactive
CCCCn1c(=O)nc2n(-c3ccccc3)c3ccccc3cc-2c1=O	inactive

From PubChem BioAssay AID463254 (National Center for Advancing Translational Sciences (NCATS), 2010)
